Measurements taken from PubChem BioAssay AID686979 (National Center for Advancing Translational Sciences (NCATS), 2013).
About 50,000 (12%) of roughly 420,000 compounds were called active. Inconclusive results, whose numbers are uncertain, are shown with a selection of clear calls. Calls follow the shape of the dose curve; as a rule, active = well fitted inhibition curve with a large enough effect; inconclusive = small, poorly fitted or top-dose-only effect; inactive = flat fitted curve, though single readings scatter. No potency is given beside an inconclusive call; the fits are too rough.

Assay: qHTS for Inhibitors of human tyrosyl-DNA phosphodiesterase 1 (TDP1): qHTS in cells in presence of CPT; also: nearly all actives have a fitted effect of over 55% in size
Settings: chicken DT40 Tdp1-/-;hTDP1 cells + 20 nM CPT, ATP luminescence, 48 h; activity change, negative = growth inhibition: at 46.2 µM (top of the series) unless noted
Procedure, shortened: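 Chicken DT40 Tdp1-/- cells complemented with human TDP1, 400 cells/well, exposed to compounds plus 20 nM camptothecin for at least 48 h at 37 C; viability read as ATP content by CellTiter-Glo luminescence.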
% is scaled to controls: 0 for no effect and ±100 for the full control effect; potency is read from the fitted curve at half-maximal effect; tags tell the direction and shape of the fitted curve.

SMILES | Potency | activity change, negative = growth inhibition
Cc1ccc(NCN2C(=O)C(=O)c3ccccc32)nc1 | active: 2.31 µM | –
O=C(C[C@@H]1C[C@H]2c3cc(NC(=O)NC4CCCCC4)ccc3O[C@H]2[C@H](CO)O1)NC1CCCCC1 | inconclusive [inhibitor, partial curve, poor fit] | –
Cc1ccc(C(=O)O/N=C(\N)Cc2cccs2)c(Cl)c1 | inconclusive [inhibitor, single point] | –
COc1cccc(/C=N/NC(=O)CSc2nnc(C)n2-c2ccccc2)c1O | inconclusive [inhibitor, single point] | –
CCOc1cc(C(=O)OCC(=O)Nc2ccc(SC(F)F)cc2)cc(OCC)c1OCC | inconclusive [inhibitor, single point] | –
Cc1ccc[n+](C(C)C(=O)Nc2ccc(C)c(C)c2)c1 (stereo not given) | inconclusive [inhibitor, single point] | –
COc1ccc([C@H]2N[C@]3(CCCN(Cc4ccc(C(F)(F)F)cc4)C3=O)[C@H]3C(=O)N(Cc4ccccc4)C(=O)[C@@H]23)cc1 | inconclusive [inhibitor, single point] | –
Brc1ccc(-n2cnc(-c3ccccc3)c2)cc1 | inconclusive [inhibitor, single point] | –
COc1ccc(C(=O)NCC(=O)OCC(=O)Nc2c(C)n(C)n(-c3ccccc3)c2=O)cc1 | inconclusive [inhibitor, single point] | –
CN(C)c1ccc(-c2cncnc2-n2ccnc2)cc1 | inconclusive [inhibitor, single point] | –
Cc1cccc(/C=N\Nc2cn[nH]c(=O)c2Cl)c1 | inconclusive [inhibitor, single point] | –
CCSc1ncc(/C=N/Nc2ccc(Cl)cc2)n1C | – | inconclusive: -32.7% [inhibitor]
CC(=O)n1nc(-c2ccc(C)cc2)nc1NCc1ccc(F)cc1 | – | inactive: -0.0371%
CC[C@@H]1CC=C[C@H]2[C@H]1C(=O)N(Cc1ccccc1)[C@H]2c1ccc(C(F)(F)F)cc1 | active: 14.6 µM | –
COc1ccc(Cl)cc1NC(=O)CN(c1ccccc1)S(=O)(=O)N(C)C | active: 29.1 µM | –
Cc1cc(Cl)ccc1-c1nc(NC(C)C)nc2ccsc12 | active: 18.4 µM | –
C[C@@H]1CN([C@H](C)CO)C(=O)c2cc(Br)cnc2O[C@@H]1CN(C)C(=O)NC1CCCC1 | – | inactive: -0.37%
CCCN1C2CCCC1CC(NC(=O)Nc1ccc(C(C)C)cc1)C2 (stereo not given) | active: 23.1 µM | –
CCCCc1nn2c(=O)cc(COC(=O)C(C)Oc3ccccc3)nc2s1 (stereo not given) | – | inactive: -4.43%
COc1cc2c(NC3CCN(C(C)C)CC3)nc(N3CCCN(C)CC3)nc2cc1OCCCN(C)C | active: 3.16 µM | –
O=C(Nc1ccc(Br)cc1F)c1cccnc1 | inconclusive [inhibitor, single point] | –
Cc1ccc(-c2csc(=Nc3cccnc3)n2CCCN2CCCC2=O)cc1C | inconclusive [inhibitor, single point] | –
O=C(Nc1ccccc1N1CCN(C(=O)c2ccc(Cl)cc2)CC1)c1ccc(Br)cc1 | – | inconclusive: -30.2% [inhibitor]
COc1ccc(CCC(=O)NCc2nc3cccnc3n2Cc2cccc(OC)c2)cc1 | inconclusive [inhibitor, single point] | –

SMILES | Potency | activity change, negative = growth inhibition
COc1ccc(Cl)cc1NC(=O)Cn1nc(C(F)(F)F)c2c1CCC2 | inconclusive [inhibitor, single point] | –
CCCc1nnc(NC(=O)CSc2nc3ccccc3[nH]2)s1 | inconclusive [inhibitor, single point] | –
Cc1ccccc1N=C(NO)c1cccnc1 | – | inactive: -1.23%
NC(=O)C1CCN(C(=O)COc2ccc(S(=O)(=O)NCc3ccccc3)cc2Cl)CC1 | inconclusive [inhibitor, single point] | –
Cc1ccc(Nc2nc(N)nc(CN3CCCCCC3)n2)c(C)c1 | inconclusive [inhibitor, single point] | –
CC(C)(C)Nc1nc(NN)nc(NC(C)(C)C)n1 | inconclusive [inhibitor, single point] | –
O=C(Nc1ccccc1N1CCN(C(=O)c2ccccc2)CC1)c1ccccc1Cl | inconclusive [inhibitor, single point] | –
COc1ccc(OC)c(C2NC(=O)CCC2[N+](=O)[O-])c1 (stereo not given) | – | inactive: -15%
CCOC(=O)N1CCc2c(sc3c2c(=O)n(-c2ccc(CC)cc2)c(=O)n3CC(=O)c2ccccc2)C1 | inconclusive [inhibitor, single point] | –
COc1ccc(OC)c(N/C(N)=N/c2nc(C)cc(C)n2)c1 | inconclusive [inhibitor, single point] | –
Cc1ccc(NC(=O)C2CCN(C(=O)c3cnn(-c4ccccc4)c3-n3cccc3)CC2)cc1 | inconclusive [inhibitor, single point] | –
CCCC(=O)N1CCC1(C)C(=O)NCc1ccccc1SC (stereo not given) | – | inactive: -28.2%
CN(Cc1ccccc1)S(=O)(=O)c1ccc(Cl)c(C(=O)N2CCC(C(N)=O)CC2)c1 | active: 23.1 µM | –
Cc1[nH]c2ccccc2c1/C=N/NC(=O)Nc1ccccc1 | – | inactive: -16.5%
CC(C)C(=O)N(c1ccc2oc(=O)sc2c1)S(=O)(=O)c1ccccc1 | inconclusive [inhibitor, single point] | –
C/C=C/c1ccc(OCC(O)CNCC(c2ccc(OC)cc2)N(C)C)c(OC)c1 (stereo not given) | inconclusive [inhibitor, single point] | –
COc1cc2c(cc1NC(=O)CSc1nc3cc(Cl)ccc3s1)oc1ccccc12 | inconclusive [inhibitor, single point] | –
COc1ccc(-c2ccc(S(=O)(=O)NCC3CCCO3)cc2)cc1 (stereo not given) | – | inactive: 5.63%
Cc1ccccc1OCC(=O)NNC(=S)NC(=O)c1ccccc1[N+](=O)[O-] | – | inactive: -92.6%
C/C=C/c1ccc(OCCCCN2CCN(CC)CC2)c(OC)c1 | inconclusive [inhibitor, single point] | –
Cc1cc(NCc2ccccc2)n2ncnc2n1 | inconclusive [inhibitor, single point] | –
COc1ccc(CCNC(=O)C(=O)NCC2OCCN2S(=O)(=O)c2ccc(OC)c(OC)c2)cc1 (stereo not given) | – | inactive: -9.88%
CC(C)CNC(=O)c1c(-c2ccccc2)c(-c2ccccc2)nn(C)c1=O | inconclusive [inhibitor, single point] | –
c1ccc(-c2cn3nc4c(nc3n2)CCCC4)cc1 | – | inconclusive: -31.1% [inhibitor]

SMILES | Potency | activity change, negative = growth inhibition
COc1cccc(CN(C)CCCn2ccc(NC(=O)OCc3ccccc3)nc2=O)c1 | inconclusive [inhibitor, single point] | –
CCC1(C)NC(c2ccc3c(c2)OCO3)=CC(c2ccccc2O)N1 (stereo not given) | inconclusive [inhibitor, single point] | –
CC(=O)N1CCC2(CCCN(c3cccc(-c4ccccc4)c3)C2)CC1 | active: 16.4 µM | –
O=C1Nc2ccccc2C1=Nc1ccc2[nH]c3ccccc3c2c1 | inconclusive [inhibitor, single point] | –
O=C(NCc1ccccc1Cl)c1ccc(NC(=O)c2nsc3ccccc23)cc1 | active: 18.4 µM | –
COCCN(C(=S)Nc1ccc(Cl)cc1OC)C1CCN(C(C)=O)CC1 | inconclusive [inhibitor, single point] | –
CCC(Oc1cc(Cl)ccc1Cl)C(=O)NN1C(=O)C2C3CCC(C3=C(C)C)C2C1=O (stereo not given) | inconclusive [inhibitor, single point] | –
Nc1nc2c(F)cccc2s1 | – | inactive: -3.3%
Cc1ccc(N2CCCn3c2cc(C)c(C#N)c3=O)cc1C | inconclusive [inhibitor, single point] | –
COc1ccc(N2CCN(C(=O)/C=C/[C@H]3O[C@@H](n4ccc(=O)[nH]c4=O)[C@H](O)[C@@H]3O)CC2)cc1 | – | inactive: -7%
CCOC(=O)c1sc(NC(=O)c2ccccc2OCC)nc1C | active: 20.6 µM | –
O=C(CSc1nnc(-c2ccncc2)n1-c1ccccc1)Nc1ccc(Br)cc1 | – | inactive: 6.69%
CC(C)[C@H](NC(=O)c1ccccc1F)C(=O)OCC(=O)Nc1sccc1C(N)=O | inconclusive [inhibitor, partial curve] | –
COc1ccccc1C(=O)N[C@@H]1c2ccccc2C2(CCN(Cc3ccc(C)o3)CC2)[C@H]1O | inconclusive [inhibitor, single point] | –
COc1ccc(S[C@@H]2C[C@@H](C(=O)Nc3ccc4nccnc4c3)N(C3Cc4ccccc4C3)C2)cc1 | inconclusive [inhibitor, single point] | –
O=c1[nH]cc(F)c(=O)n1C1OC(CO)C(O)C1O (stereo not given) | – | inactive: -12.2%
CN(Cc1ccccc1)S(=O)(=O)c1ccc(NS(C)(=O)=O)cc1 | inconclusive [inhibitor, full curve, poor fit] | –
CNc1snc(C)c1C(=O)OCC(=O)c1cc(F)ccc1OC | inconclusive [inhibitor, single point] | –
CNc1sc(C(=O)c2ccc(F)cc2)c(N)c1-c1nc2ccccc2s1 | active: 5.17 µM | –
Cc1ccc(CNc2nc(C)nc3sc4c(c23)CCC4)cc1 | active: 23.1 µM | –
COc1cc(C(=O)NCC(c2cccs2)N2CCc3ccccc32)cc(OC)c1OC (stereo not given) | inconclusive [inhibitor, single point] | –
CCCCNC(=O)c1onc(CSc2ccc(Cl)cc2)c1C(=O)NCCCC | inconclusive [inhibitor, single point] | –
